About 6,400 (1.6%) of roughly 410,000 compounds were called active. The inconclusive results got no clear call from the source; some entries with a clear call stand among them for comparison. Calls come from the whole dose curve; as a rule, active = well fitted inhibition curve with a large enough effect; inconclusive = small, poorly fitted or top-dose-only effect; inactive = no such curve, though single readings can be large or run the other way. Potencies of inconclusive entries are left out as doubtful fits.
Target: Glucagon-like peptide 1 receptor (Homo sapiens) (UniProt P43220)
Test: qHTS of GLP-1 Receptor Inverse Agonists (Inhibition Mode); note: nearly all actives have a fitted effect of over 55% in size
Details: HEK293 GLP-1R CRE-luciferase, luminescence, 24 h, GLP-1R form is constitutively active; series mostly up to 38.3 µM
Summary of the method: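 HEK293 cells stably co-expressing constitutively active GLP-1R and a cAMP-responsive luciferase reporter were seeded in DMEM with 10% Nu serum, given compounds after 12 h, and incubated 24 h at 37 deg C. Luminescence was then read.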
Potency is the fitted concentration of half-maximal effect; tags give direction and shape of the fitted curve.

Sequence of UniProt P43220 (P43220 whole entry, looked up): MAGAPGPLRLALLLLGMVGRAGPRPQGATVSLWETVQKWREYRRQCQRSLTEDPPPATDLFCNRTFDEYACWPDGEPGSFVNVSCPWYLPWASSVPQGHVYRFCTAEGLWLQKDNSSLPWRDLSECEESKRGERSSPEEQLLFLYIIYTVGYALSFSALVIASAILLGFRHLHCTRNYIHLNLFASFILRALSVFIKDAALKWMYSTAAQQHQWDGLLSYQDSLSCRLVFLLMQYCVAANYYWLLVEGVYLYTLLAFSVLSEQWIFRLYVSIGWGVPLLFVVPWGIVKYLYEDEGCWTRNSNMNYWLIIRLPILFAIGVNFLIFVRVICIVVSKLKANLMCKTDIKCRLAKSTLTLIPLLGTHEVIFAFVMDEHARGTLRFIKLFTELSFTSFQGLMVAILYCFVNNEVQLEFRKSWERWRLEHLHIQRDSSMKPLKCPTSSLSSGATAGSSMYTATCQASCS

SMILES | Potency
Cc1ccccc1N1CCN(C(=S)c2ccc([N+](=O)[O-])cc2)CC1 | inconclusive [inhibitor, single point]
Oc1ccc(CCNc2c3ccccc3nc3ccccc23)cc1O | inactive
Cc1ccc(/C=N/Nc2ccnc3cc(Cl)ccc23)c(C)c1 | inconclusive [inhibitor, partial curve, poor fit]
Cc1cc(N2C(=O)CC(N3CCN(C(c4ccccc4)c4ccccc4)CC3)C2=O)no1 (stereo not drawn) | inconclusive [inhibitor, partial curve, poor fit]
Cc1cccc(-c2nnc(SCc3ccccc3)o2)c1 | inconclusive [inhibitor, single point]
Cc1nn(CC(=O)NC2CCS(=O)(=O)C2)c(C)c1[N+](=O)[O-] (stereo not drawn) | inactive
CCN(CC)C(=O)[C@H]1C[C@H](CC(=O)NC/C=C(\C)CCC=C(C)C)C(=O)N2CCc3c([nH]c4cc(-c5ccco5)ccc34)[C@]12C | inconclusive [inhibitor, single point]
CCOC(=O)N1CCN(S(=O)(=O)c2ccc(C(=O)N(CCCN(C)C)c3nc4ccc(Cl)cc4s3)cc2)CC1 | inconclusive [inhibitor, partial curve, poor fit]
CCOC(=O)Nc1nc2ccccc2s1 | inactive
CCOc1cc(/C=C2/NC(=O)N(Cc3ccccc3F)C2=O)ccc1O | inconclusive [inhibitor, single point]
CCOC(=O)c1c(NC(=O)CSc2nnc(CNc3ccc(C)cc3C)o2)sc(C)c1C | inconclusive [inhibitor, single point]
CC(C)N(Cc1nc(-c2ccccc2)no1)C(=O)C(C)(C)C | inconclusive [inhibitor, partial curve]
COc1ccc(N2CCN(C(=O)c3cnn(-c4ccc(OC)cc4)c3C3CCN(C(=O)OC(C)(C)C)CC3)CC2)cc1 | inactive
O=C(Nc1ccc2c(c1)OCO2)N1CCN(Cc2ccco2)CC1 | inconclusive [inhibitor, partial curve, poor fit]
CCOC(=O)CNC(=O)c1ccccc1 | inactive
Cc1cc(C)cc(N(CC(=O)NCCSCc2ccccc2)S(C)(=O)=O)c1 | inconclusive [inhibitor, single point]
COc1cc2c(cc1NC(=O)COC(=O)[C@@H](NC(=O)c1ccccc1)C(C)C)oc1ccccc12 | inconclusive [inhibitor, single point]
O=C(C(=O)N(C1CCCCC1)C1CCCCC1)c1ccccc1 | inconclusive [inhibitor, single point]
Cc1ccc(Nc2cc(C)nn2-c2nc(C)cc(=O)[nH]2)cc1 | inconclusive [inhibitor, full curve, poor fit]
Nc1cc(C2CCCC2)nn1-c1ccccc1 | inconclusive [inhibitor, single point]
CCC1CN2CCc3cc(OC)c(OC)cc3C2CC1CC1c2cc(OC)c(OC)cc2CCN1C(=O)C(Cc1c[nH]c2ccccc12)NC(=O)OC(C)(C)C (stereo not drawn) | inconclusive [inhibitor, single point]
Cc1ccc(CN2CCC(Oc3cccc(C(=O)NCc4cccnc4)c3)CC2)o1 | inactive

SMILES | Potency
Cc1ccccc1-c1noc(-c2nnn(-c3ccccc3C)c2N)n1 | inactive
CN1CC(=O)Nc2cc(C(=O)O)ccc21 | inactive
O=C(CCNC(=O)c1ccco1)Nc1ccc(Cl)c(C(F)(F)F)c1 | inconclusive [inhibitor, single point]
O=C(CN1C(=O)CCSc2ccccc21)Nc1ccc(C(F)(F)F)cc1 | inconclusive [inhibitor, single point]
O=C1NC[C@H](CCCCN2C[C@H](Cc3ccc(O)cc3)N(CC3CCCCC3)C(=O)C2=O)N(CCc2ccccc2)C1=O | inactive
O=C(Nc1ccccc1F)NC1CC1 | inactive
CCCn1c(=S)[nH]c2cc(OC)c(OC)cc2c1=O | inactive
Cc1ccc(CN2CCN(C(=O)c3cccc4ccccc34)CC2)cc1 | active: 3.98 µM
Cc1cccc(NC(=S)NC(NC(=O)c2ccco2)C(Cl)(Cl)Cl)c1 (stereo not drawn) | active: 1.12 µM
Cc1ccc(CNC(=O)C2CCCN(c3ncnc4onc(-c5ccc(F)cc5)c34)C2)cc1 (stereo not drawn) | inactive
Cc1ccc(NC(=S)N/N=C/c2c(C)nn(-c3ccccc3)c2N2CCCC2)cc1 | inconclusive [inhibitor, partial curve, poor fit]
O=C(CCl)NC1CCCc2ccccc21 (stereo not drawn) | inconclusive [inhibitor, partial curve]
Cc1ccc(NC(=S)NC(NC(=O)C(C)(C)C)C(Cl)(Cl)Cl)c(C)c1 (stereo not drawn) | inconclusive [inhibitor, partial curve, poor fit]
Cc1ccc(C2=CSC3=NCCN23)c(C)c1 | inconclusive [inhibitor, partial curve, poor fit]
Cc1ccc(OCCn2cc(/C=N/NC(=O)c3ccncc3)c3ccccc32)cc1 | inconclusive [inhibitor, full curve, poor fit]
COc1cccc(-n2ccnc2SCC(=O)N2CCCc3ccccc32)c1 | inconclusive [inhibitor, single point]
Cc1cc(C)cc(C(=O)NC(=S)Nc2ccc(Cc3ccncc3)cc2)c1 | inconclusive [inhibitor, partial curve]
CC(=O)Oc1ccc(N(C(C)=O)S(=O)(=O)c2ccccc2)c2ccccc12 | inactive
Cc1ccc([N+](=O)[O-])cc1N=Nc1c(-c2ccc([N+](=O)[O-])cc2)[nH]n(C(N)=S)c1=O | inconclusive [inhibitor, full curve, poor fit]
COc1ccc(C(=O)Nc2nc3n(n2)C(c2ccc(Cl)cc2)C=C(c2ccccc2)N3)cc1OC (stereo not drawn) | inconclusive [inhibitor, single point]
c1ccc(-c2nc(N3CCOCC3)sc2-c2ccccc2)cc1 | inconclusive [inhibitor, single point]
